In PubChem BioAssay AID2060512 (Molecular Pharmacology Branch, DTP, NCI, 2025):
Not every entry of the source has a single result; some have several. This is not the full list of results. There may be further records. Results that share an entry are repeated measurements across runs, samples, wells, individuals or studies. Brackets with × count equal records among those shown.

Test system: 186277-243-T-J2-PDC complex spheroid viability
Assay: Anticancer human tumor 186277-243-T-J2-PDC patient-derived colon adenocarcinoma cell line growth inhibition [GQUAD]
Conditions: stronger effect = lower value
Source text: DNA G-quadruplex Stabilizer Agents in Combinations in Complex Spheroids
A high-throughput screen of multi-cell type tumor spheroids was designed to identify active combinations of DNA G-quadruplex stabilizer agents and targeted small molecules. Complex spheroids include a stromal component modeled by human endothelial cells (HUVEC) and fibroblasts modeled by human mesenchymal stem cells (MSCs). The concentration ranges selected for each drug and investigational agent were based upon clinically achievable concentrations if the clinical Cmax of the agent was known.
Compounds. The drugs and investigational agents: pidnarulex (CX-5461; NSC782164), APTO-253 (NSC789042), BRACO-19 (NSC847499), peposertib (NSC802822), ceralasertib (NSC780249), elimusertib (NSC800525), camonsertib (NSC841442), AZD-1390 (NSC803789), olaparib (NSC753686), talazoparib (NSC767125), ART-558 (NSC835418), sotorasib (NSC818433), MRTX-1133 (NSC836407), SN-38 (NSC673596), topotecan (NSC609699), etoposide (NSC141540), doxorubicin (NSC123127), gemcitabine (NSC613327), 5-fluorouracil (NSC19893), paclitaxel (NSC125973), vemurafenib (NSC761431), panobinostat (NSC761190), R-306465 (JNJ-16241199; NSC773264), adavosertib (NSC754352), TP-3654 (NSC805149), carboplatin (NSC241240), KSQ-4279 (NSC840948), and staurosporine (NSC755774) were obtained from the National Cancer Institute (NCI) Developmental Therapeutics Program Chemical Repository (34). The FDA-approved anticancer drug set is available from the NCI Developmental Therapeutics Program. […] The stock solutions were prepared in dimethyl sulfoxide (DMSO, Sigma-Aldrich, St. Louis, MO, cat. D2650) at 800-fold the tested concentration and stored at -70 degrees C prior to their use. All drugs and investigational agents were tested over a range starting from a high concentration at or near the clinical Cmax and decreasing in half-log increments. If the clinical Cmax for an agent had not been determined, the highest concentration tested was 10 microM.
2.3 Cell Culture. All cells were maintained in an incubator at 37 degrees C and 5% CO2 with 95% humidity. The PDC lines were cultured according to standard operating procedures established by the NCI PDMR. All PDCs were thawed and cultured in Matrigel-coated flasks prepared with a working solution of 1X Ham's F-12 nutrient mix, without supplementation (Invitrogen, cat. 11765054), 100 U/mL penicillin-streptomycin (Invitrogen, cat. 15140122), and 2.5% Matrigel (Corning Inc., cat. 354248) for the first three passages. […]
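Also: spheroids exposed to drugs for 7 days; 100% = DMSO vehicle control viability.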

With `Cc1cnc(CNC(=O)c2c(=O)c3ccc(N4CCCN(C)CC4)nc3n3c2sc2ccccc23)cn1` as the compound, how does the viability, T/C (compound alone 0.1 µM) read?
The viability, T/C was 91, 85.9, 92.6, 96.4, 81.1, 87.3, 75.1, 102, 86, 77.5, 90.1, 79.2%.

With `CN(C)c1ccc(Nc2c3ccc(NC(=O)CCN4CCCC4)cc3nc3cc(NC(=O)CCN4CCCC4)ccc23)cc1` as the compound, how does the viability, T/C (compound alone 0.0316 µM) read?
Its viability, T/C is 100, 97.5, 96, 94.8, 83.2, 99.3, 101, 85, 115, 106, 103, 98.2%.

What about the viability, T/C (compound alone 3.16 µM) of the same compound?
Its viability, T/C is 110 (2×), 79.4, 89.2, 93.9, 96, 95.6, 99.9, 90.6, 104, 96.2, 95.7%.

Which viability, T/C (compound alone 0.316 µM) does the source give for `Cc1[nH]c2ccc(F)cc2c1-c1nc2c3cccnc3c3ncccc3c2[nH]1` here?
Its viability, T/C is 98.1, 108 (2×), 91.6, 97, 95.2, 86.1, 93.8, 114, 104, 113, 106%.
